Results published in PubChem BioAssay AID488969 (Vanderbilt High Throughput Screening Facility, 2010).
In all, about 110,000 compounds were measured (“z-score”: median about -0.1, highest 2% from about 2 on). Some of the results follow.

Target: Metabotropic glutamate receptor 8 (Rattus norvegicus) (UniProt P70579)
Assay: mGluR8 Gi/Go-coupled signaling modulation – cell-based, rat, thallium flux, HTS, primary screen (AID 488969)
Conditions: HEK293 rat mGluR8, GIRK (G protein-gated inwardly rectifying potassium channel) thallium flux, FluoZin2; at 10 µM; stronger effect = higher value; submaximal glutamate (EC20) added with thallium

Chain of UniProt P70579 (P70579 whole entry, looked up): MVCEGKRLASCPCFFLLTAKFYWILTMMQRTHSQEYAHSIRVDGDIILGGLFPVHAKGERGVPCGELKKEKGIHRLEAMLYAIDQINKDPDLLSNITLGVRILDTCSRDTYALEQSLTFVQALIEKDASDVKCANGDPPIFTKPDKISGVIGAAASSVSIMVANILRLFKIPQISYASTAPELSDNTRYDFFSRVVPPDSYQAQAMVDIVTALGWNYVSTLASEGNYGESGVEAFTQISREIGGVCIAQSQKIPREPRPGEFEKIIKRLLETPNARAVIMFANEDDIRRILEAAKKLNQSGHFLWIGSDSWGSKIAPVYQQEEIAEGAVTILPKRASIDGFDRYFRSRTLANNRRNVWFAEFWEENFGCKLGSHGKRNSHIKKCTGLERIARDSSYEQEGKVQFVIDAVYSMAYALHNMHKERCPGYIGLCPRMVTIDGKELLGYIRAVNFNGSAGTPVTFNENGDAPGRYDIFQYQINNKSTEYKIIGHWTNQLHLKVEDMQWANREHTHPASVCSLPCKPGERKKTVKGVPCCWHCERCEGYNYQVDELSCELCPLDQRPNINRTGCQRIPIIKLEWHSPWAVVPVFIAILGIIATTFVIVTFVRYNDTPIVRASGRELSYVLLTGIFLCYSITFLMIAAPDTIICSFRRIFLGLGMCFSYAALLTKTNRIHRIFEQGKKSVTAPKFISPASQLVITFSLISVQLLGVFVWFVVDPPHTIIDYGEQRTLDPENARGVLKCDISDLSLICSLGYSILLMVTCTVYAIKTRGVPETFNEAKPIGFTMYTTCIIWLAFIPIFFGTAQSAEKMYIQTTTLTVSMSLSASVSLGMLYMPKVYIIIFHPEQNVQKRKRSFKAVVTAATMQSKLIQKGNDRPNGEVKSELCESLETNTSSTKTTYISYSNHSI

Structure (SMILES)	z-score
Cc1ccsc1/C=N/NC(=O)c1ccco1	1.93
N/C(=N\OC(=O)c1ccc(Cl)cc1Cl)c1ccc(Cl)cc1	-0.299
CN1C(=O)C2(C(C#N)=C(N)Oc3c2oc(CO)cc3=O)c2ccccc21 (stereo unspecified)	-0.124
Cc1nc(NC(=O)c2ccc(Cl)cc2)nc2cc3c(cc12)OCO3	-0.325
COc1ccc(-c2cnc(SCC(=O)Nc3nc(C(C)(C)C)cs3)n2Cc2ccco2)cc1	0.0122
CCC1=NN(C(=O)CCc2ccccc2)C(O)(C(F)(F)F)C1 (stereo unspecified)	-0.157
O=C(Nc1ccc(Cl)c(Cl)c1)N1CCSCC1	-0.198
CC(=O)Nc1ccc(S(=O)(=O)NNC(=O)c2sc(=S)n(C)c2C)cc1	-0.387
Oc1ccc2ccccc2c1CNc1cnc2ccccc2c1	-0.113
CSc1nc(NCc2ccccc2)c2c3c(sc2n1)CN(C)CC3	0.0364
CCn1c(CNc2ccccc2Cl)nnc1SCC(=O)NCc1ccccc1	0.0905
CC1CCC(C(=O)NC(C(=O)N2CCC(N3CCCCC3)CC2)C(C)C)CC1 (stereo unspecified)	0.0459
CC(=O)Nc1ccc(S(=O)(=O)N2CCN(Cc3ccncc3)CC2)cc1	0.478
O=C(CCN1C(=O)C2C3C=CC(C3)C2C1=O)Nc1ccc2ncccc2c1 (stereo unspecified)	0.715
O=C(CN1CCCCC1)N1CCN(C(=O)CN2CCCCC2)CC1	0.114
COc1ccccc1C(O)(C(=O)NN(C(=O)c1ccccc1)c1ccccc1C)c1cccs1 (stereo unspecified)	0.161
CSc1ccc(C2C(C#N)=C(N)Oc3cc4c(cc32)OCO4)cc1 (stereo unspecified)	0.0588
Cc1cc(C)n(/N=C/c2c[nH]c3ccccc23)c(=O)c1C#N	-0.235
O=C(C(Cc1ccc(Cl)cc1)NS(=O)(=O)c1ccccc1)N1CC[C@@]2(O)CCCC[C@H]2C1 (stereo partly specified)	-0.214
CCN(CC)C(NC(=O)c1ccccc1)C(=O)c1ccccc1 (stereo unspecified)	-0.0354
O=C(NCCN1C(=O)C2C3C=CC(C3)C2C1=O)Nc1cccnc1 (stereo unspecified)	0.578
COc1cc2nc(C3CCC3)n(NC(=O)C3CCC3)c(=O)c2cc1OC	-0.223
O=C(COC(=O)c1ccc(S(=O)(=O)Nc2ccccc2)cc1)NCCC1=CCCCC1	-0.0968

Structure (SMILES)	z-score
CCN(CC)S(=O)(=O)c1ccc(-c2nnc(SCC(=O)N3c4ccccc4CC3C)o2)cc1 (stereo unspecified)	-0.177
CCOC(=O)C1=C(c2ccccc2)NC(=S)NC1c1ccc(Cl)c([N+](=O)[O-])c1 (stereo unspecified)	-0.825
O=C(CCCn1c(=O)c2ccccc2n(Cc2ccccc2)c1=O)NCc1ccco1	-0.26
CO/N=C(\C)c1ncc(C(F)(F)F)cc1N1CCOCC1	-0.215
Cc1ccc(NC(=O)CN2CCc3ccccc3C2)cc1	-0.158
O=C(C1CC(=O)N(C2CCCC2)C1)N1CCN(c2ccccc2F)CC1 (stereo unspecified)	-0.813
COC(=O)c1ccc(NC(=O)CSc2nccn2CCc2ccccc2)cc1	-0.362
CC(=O)Nc1ccc(NC(=O)c2ccc(C3SCC(=O)N3CCc3ccccc3)cc2)cc1 (stereo unspecified)	-0.311
O=C(CSc1ncnc2nc[nH]c12)Nc1ccccc1C(F)(F)F	0.0257
O=C1Nc2ccccc2C(=O)C1(Cl)Cc1ccccc1 (stereo unspecified)	-0.82
CC(NC(=O)c1cccs1)c1nnc(SCc2ccc(Cl)cc2Cl)n1C (stereo unspecified)	-0.258
N#Cc1cc(-c2ccccc2)oc1/N=C/c1ccccc1O	0.312
CC(C)N(C1=N/C(=C\c2ccco2)C(=O)N1c1ccccc1)C(C)C	-0.277
O=C(/C=C/c1ccc(Cl)cc1)N1CCN(c2ncccn2)CC1	-0.106
COc1ccc(CCn2c(-c3ccco3)nc3ccccc3c2=O)cc1OC	-0.123
COC(=O)c1ccccc1N1C(=O)C2C(C1=O)C1C=CC2C12CC2 (stereo unspecified)	0.0592
Cn1c(=O)c2cc(S(=O)(=O)Nc3cccc(F)c3)ccc2n(C)c1=O	-0.316
CC1(C)CC(=O)c2cn3nc(C(F)(F)F)nc3nc2C1	-0.129
COc1ccc(-n2c(=O)c3c4c(sc3n(CC(=O)NCc3ccco3)c2=O)CCC4)c(OC)c1	-0.818
COc1ccc(Nc2c3c(nc4c(-c5ccccc5)c(C)nn24)CCC3)cc1	-0.865
Cc1c(C(=O)NCC2CCCO2)cccc1[N+](=O)[O-] (stereo unspecified)	-0.31
Cc1cccc(NC(=O)C2CC(=O)OC23CCCCC3)c1 (stereo unspecified)	-0.00907
COc1ccc(OC)c(NC=C2C(=O)OC(C)(C)OC2=O)c1	-0.191

Structure (SMILES)	z-score
O=C(CN1CCN(C2CCCCC2)CC1)c1c[nH]c2ccccc12	-0.182
O=C(NC(=S)N1CCN(c2ccc(Cl)cc2[N+](=O)[O-])CC1)c1ccco1	2.99
CCOc1ccccc1Oc1c(C)oc2c(CN3CCN(CCO)CC3)c(O)ccc2c1=O	-0.395
O=C(CSc1nc2c(sc3ccccc32)c(=O)n1CCc1ccccc1)NCc1ccco1	0.0812
Cc1ccc2nc(C)c(C)nc2c1N	-0.23
Cc1ccc(-n2nnnc2SCn2nnc3ccccc3c2=O)c(C)c1	-0.341
Cc1onc(-c2ccccc2)c1C(=O)NCc1ccco1	0.49
Cn1cc(/C=N\NC(=O)C2COc3ccccc3O2)c2ccccc21 (stereo unspecified)	-0.172
O=C(NCCN1CCOCC1)C1CCC(=O)N1Cc1ccc(F)cc1 (stereo unspecified)	0.194
O=C(CNC(=O)c1cccc(F)c1)OCc1cc(=O)n2cc(Br)ccc2n1	-0.354
O=C(CN(Cc1ccccc1)S(=O)(=O)c1cccc(C(F)(F)F)c1)NC1CCCCC1	0.114
COc1ccc(CCNC(=O)CN2C(=O)c3ccccc3S2(=O)=O)cc1	-0.123
CCOc1ccc(C(=O)SC2=NCCS2)cc1	-0.0564
CC(C)(C)c1cc(OC(=O)c2ccncc2)ccc1O	-0.187
O=C(NC1CC1)c1sccc1-n1cccc1	-0.0372
COc1cccc(NC(=O)CSc2nnc(-c3ccc(C)cc3)o2)c1	0.576
N#Cc1nc(-c2ccco2)oc1N1CCCC1	1.52
COc1ccccc1NC(=O)COc1ccc(/C=N/NC(=O)CSCc2ccc(Cl)cc2)cc1	0.067
O=C(Nc1nnc(CCN2CCOCC2)s1)c1ccccc1	0.358
CSc1ccccc1OC1CCN(Cc2ccccc2)CC1	0.972
O=C(Nc1ccc(Cl)cc1)C1CCN(C(=O)NC2CCCCC2)CC1	-0.0672
Cc1cccnc1N(C(=O)Nc1ccccc1)C1=NCC(C)(C)S1	-0.183
OCCNCCOc1ccccc1-c1ccccc1	-0.00757

Structure (SMILES)	z-score
Clc1ccc2[nH]c3c(N4CCC5(CC4)OCCO5)ncnc3c2c1	-0.572
CCOc1cc(C(=O)NCCOC)cc(OCC)c1OCC	0.693
CC(=O)NCCc1nc2ccccc2n1Cc1ccc(C)cc1	0.404
CCOc1cc(S(=O)(=O)NC2CC2)c(OCC)cc1-n1cnnn1	-0.29
Cc1ccc(S(=O)(=O)N(CC(=O)N2CCc3ccccc3C2)c2ccc(Cl)c(Cl)c2)cc1	-0.265
COc1ccc(N2CCN(C(=O)CSc3ccccc3N)CC2)cc1	0.311
CN(C)c1ccc(/C=C(\Cl)c2nc3ccccc3s2)cc1	-0.171
COc1cccc2cc(-c3cn4ccc(C)cc4n3)c(=O)oc12	-0.32
COc1ccc(NC(C)=O)c2nc(C)c(C)nc12	-0.473
NC(=O)C1(N2CCCCC2)CCN(C(=O)CSc2nc3ccccc3s2)CC1	0.851
Cc1cc(Cl)cc(Br)c1OCCCCn1cncn1	1.79
COc1ccc(N(CC(=O)N/N=C/c2ccco2)S(=O)(=O)c2ccccc2)cc1	0.146
COc1ccc(NC(=O)c2ccc(CNS(=O)(=O)c3cccc(OC)c3)cc2)cc1	-0.344
CC1CC(C)CN(CC(C)(C)NS(=O)(=O)c2ccccc2)C1 (stereo unspecified)	-0.0174
COc1ccc(Nc2nnc(C)c3ccccc23)cc1C(N)=O	-0.156
COCCCNC(=O)c1ccc(Cn2c(=O)c3ccccc3n(Cc3cc(C)ccc3C)c2=O)cc1	-0.321
CCOC(=O)CSC1=C(C#N)C(c2sccc2C)C(C(C)=O)=C(C)N1 (stereo unspecified)	-0.0469
Cc1ccc(CC(CC(=O)NCCc2ccc3c(c2)OCO3)C(=O)O)cc1 (stereo unspecified)	0.0279
COc1ccccc1NC(=O)CSc1nnc(COc2ccc(Cl)cc2)n1Cc1ccco1	-0.311
O=C(NCCCN1CCN(c2cccc(Cl)c2)CC1)C1(S(=O)(=O)c2ccc(Cl)cc2)CC1	1.03
CSc1ccc(-c2c(C#N)c(N)nc3c2CCCC3)cc1	0.483
Cc1cccc(C)c1NC(=O)c1c(C)nn(-c2ccccc2)c1Cl	-0.207
CCN(CC)c1nc(Nc2ccc(Cl)cc2)nc(OCC#N)n1	-0.326

Structure (SMILES)	z-score
CCc1ccc(OCc2nnc(SCC(=O)N3CCN(c4ccccc4)CC3)o2)cc1	-0.221
N/C(CCN1CCCCC1)=N/O	0.164
O=C(Nc1cccc(C(F)(F)F)c1)c1ccco1	-0.122
CCOc1ccc2nc(SCC(=O)NCc3ccc4c(c3)OCO4)[nH]c2c1	-0.154
O=C(NCc1ccc2c(c1)OCO2)C12CN(Cc3ccccc3)CC1C(c1cccc([N+](=O)[O-])c1)=NO2 (stereo unspecified)	-0.441
COc1ccccc1NC(=O)CSc1nnc(Cn2nnc(-c3ccccc3)n2)n1-c1ccccc1	-0.183
COc1ccc(C(=O)Oc2c(C)occc2=O)cc1OC	0.637
CCOc1ccccc1C(=O)NCc1ccc2c(c1)OCO2	-0.084
CN(C)c1cccc(C(=O)OCc2cc(=O)oc3cc(O)ccc23)c1	0.124
Cc1ccc2c(Cl)c(C(=O)Nc3cccnc3)sc2c1	-0.0509
CN(C)c1cccc(-c2nnc(SCCCC#N)o2)c1	-0.0637
CCc1ccc(/C=C2/SC(=S)N(CC(=O)Nc3nc4ccccc4s3)C2=O)cc1	0.628
CCN(CC)S(=O)(=O)c1cc(OCC(N)=O)c(C)cc1Cl	-0.189
CCOc1ccc(OCC)c(NC(=O)C2CCCN(S(=O)(=O)c3cccs3)C2)c1 (stereo unspecified)	-0.183
O=C(N/N=C/C=C/c1ccco1)C(O)c1ccccc1 (stereo unspecified)	-0.1
CC(C)NC(=O)Cn1cc(C#N)c2cc(Br)ccc21	0.34
CCOC(=O)c1c(-c2cccc(C)c2)csc1NC(=O)c1c(-c2ccccc2)noc1C	-0.16
Cc1cc(S(=O)(=O)NC2CCCCC2)ccc1OCC(=O)N1CCOCC1	-0.23
CCOc1ccc2nnnn2n1	0.275
